According to article PMC4780765:
Results are given in words; binding and its absence hold for the method and conditions named. For part of these data: Binding seen in cells or lysates may run through a third protein. Some binding calls cover weakened binding; strength is not graded here. One block for each substance: values may come before it.

Amino acid sequences for entries named in this document (tags omitted). A change or cut given only in a name is not applied to a line headed by its entry.
UniProt P22392: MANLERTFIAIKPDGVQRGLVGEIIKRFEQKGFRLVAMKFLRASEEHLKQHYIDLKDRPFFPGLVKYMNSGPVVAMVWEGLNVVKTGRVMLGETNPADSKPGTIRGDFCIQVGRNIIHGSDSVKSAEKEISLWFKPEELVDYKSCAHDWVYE
UniProt P13569: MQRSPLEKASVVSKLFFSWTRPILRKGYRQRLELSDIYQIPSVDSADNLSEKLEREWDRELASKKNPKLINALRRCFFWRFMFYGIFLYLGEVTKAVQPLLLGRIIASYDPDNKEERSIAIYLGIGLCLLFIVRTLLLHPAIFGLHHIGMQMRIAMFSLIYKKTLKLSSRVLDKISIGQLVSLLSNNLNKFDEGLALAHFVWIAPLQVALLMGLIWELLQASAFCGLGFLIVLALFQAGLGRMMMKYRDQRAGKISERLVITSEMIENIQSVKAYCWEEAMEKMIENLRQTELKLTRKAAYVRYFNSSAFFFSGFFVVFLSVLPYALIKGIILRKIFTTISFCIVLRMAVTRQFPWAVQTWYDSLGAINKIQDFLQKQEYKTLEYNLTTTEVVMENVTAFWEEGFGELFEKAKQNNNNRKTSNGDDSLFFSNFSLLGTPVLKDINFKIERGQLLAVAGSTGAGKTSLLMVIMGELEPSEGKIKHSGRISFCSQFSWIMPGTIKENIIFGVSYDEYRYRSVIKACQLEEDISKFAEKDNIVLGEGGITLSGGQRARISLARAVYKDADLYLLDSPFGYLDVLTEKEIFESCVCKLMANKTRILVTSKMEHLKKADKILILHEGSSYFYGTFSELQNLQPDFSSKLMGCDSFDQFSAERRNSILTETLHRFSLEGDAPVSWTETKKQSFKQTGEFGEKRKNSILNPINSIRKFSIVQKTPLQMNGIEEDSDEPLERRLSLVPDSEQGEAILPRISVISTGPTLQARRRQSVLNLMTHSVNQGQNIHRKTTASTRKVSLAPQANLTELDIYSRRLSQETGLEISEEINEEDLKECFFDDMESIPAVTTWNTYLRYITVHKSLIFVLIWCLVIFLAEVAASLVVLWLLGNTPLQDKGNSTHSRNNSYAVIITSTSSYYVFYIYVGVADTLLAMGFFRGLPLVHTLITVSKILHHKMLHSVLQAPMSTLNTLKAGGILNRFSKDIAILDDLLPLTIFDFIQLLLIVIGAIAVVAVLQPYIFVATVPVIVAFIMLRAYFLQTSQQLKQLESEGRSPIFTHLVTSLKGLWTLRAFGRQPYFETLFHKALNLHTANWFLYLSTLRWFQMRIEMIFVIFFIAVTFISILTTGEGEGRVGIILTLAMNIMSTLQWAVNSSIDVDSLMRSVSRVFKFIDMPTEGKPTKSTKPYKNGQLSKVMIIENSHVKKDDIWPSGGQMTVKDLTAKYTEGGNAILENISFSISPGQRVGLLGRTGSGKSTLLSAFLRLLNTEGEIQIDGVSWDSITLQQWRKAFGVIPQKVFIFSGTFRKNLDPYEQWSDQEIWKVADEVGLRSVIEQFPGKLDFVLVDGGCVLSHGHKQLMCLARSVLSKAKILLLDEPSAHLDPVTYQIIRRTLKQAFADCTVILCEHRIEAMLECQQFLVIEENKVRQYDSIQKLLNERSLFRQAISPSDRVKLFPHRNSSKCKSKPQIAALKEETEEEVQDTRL
UniProt Q13131: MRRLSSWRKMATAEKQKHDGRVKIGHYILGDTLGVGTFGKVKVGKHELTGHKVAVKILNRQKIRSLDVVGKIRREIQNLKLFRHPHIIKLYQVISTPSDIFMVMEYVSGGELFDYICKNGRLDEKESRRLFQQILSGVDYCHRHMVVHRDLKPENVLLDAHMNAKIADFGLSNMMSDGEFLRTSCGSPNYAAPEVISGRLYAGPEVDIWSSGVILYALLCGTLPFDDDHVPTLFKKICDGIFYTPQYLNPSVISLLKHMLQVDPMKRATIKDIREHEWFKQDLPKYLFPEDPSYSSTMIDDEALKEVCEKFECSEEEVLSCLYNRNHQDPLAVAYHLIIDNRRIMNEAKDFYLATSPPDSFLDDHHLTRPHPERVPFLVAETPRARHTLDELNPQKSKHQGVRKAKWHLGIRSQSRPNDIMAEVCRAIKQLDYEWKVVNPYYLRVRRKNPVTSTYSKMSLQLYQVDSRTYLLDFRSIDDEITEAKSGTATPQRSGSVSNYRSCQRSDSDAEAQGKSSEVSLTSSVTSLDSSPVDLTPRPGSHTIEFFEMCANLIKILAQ
UniProt P54646: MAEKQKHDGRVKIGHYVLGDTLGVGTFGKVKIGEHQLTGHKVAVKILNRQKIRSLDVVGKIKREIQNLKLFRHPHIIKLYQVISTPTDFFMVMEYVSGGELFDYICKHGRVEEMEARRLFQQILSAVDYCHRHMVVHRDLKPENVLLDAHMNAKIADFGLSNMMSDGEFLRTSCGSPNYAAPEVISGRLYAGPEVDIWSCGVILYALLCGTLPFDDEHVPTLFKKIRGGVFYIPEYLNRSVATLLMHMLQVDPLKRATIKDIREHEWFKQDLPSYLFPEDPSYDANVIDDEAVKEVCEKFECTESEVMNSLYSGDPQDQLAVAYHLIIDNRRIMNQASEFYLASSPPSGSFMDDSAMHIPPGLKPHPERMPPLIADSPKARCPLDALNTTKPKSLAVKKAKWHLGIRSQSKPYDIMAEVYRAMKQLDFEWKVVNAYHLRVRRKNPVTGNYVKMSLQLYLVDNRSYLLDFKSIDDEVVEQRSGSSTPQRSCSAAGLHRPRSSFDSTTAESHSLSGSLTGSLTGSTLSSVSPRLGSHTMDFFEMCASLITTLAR
UniProt P15531: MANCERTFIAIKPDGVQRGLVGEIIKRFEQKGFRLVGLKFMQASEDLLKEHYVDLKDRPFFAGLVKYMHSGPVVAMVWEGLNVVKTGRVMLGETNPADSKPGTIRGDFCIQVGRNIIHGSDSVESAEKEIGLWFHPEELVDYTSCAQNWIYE

Assays:
[1] = target: nucleoside diphosphate kinase B (human (endogenous in 16HBE14o-)) (UniProt P22392); assay: co-IP; CFTR or NDPK-B immunoprecipitates from 16HBE14o- membranes; cells untreated, treated with FSK (10 μM)/IBMX (100 μM) for 30 min, or with PKI (100 nM) or H-89 (1 μM) for 5 min before FSK/IBMX
[2] = target: nucleoside diphosphate kinase B (human (endogenous in 16HBE14o-)) (UniProt P22392); assay: co-IP; CFTR or NDPK-B immunoprecipitates on beads from lysates of FSK/IBMX-stimulated 16HBE14o- cells, incubated with buffer or peptide for 30 min at 30°C; beads and supernatant immunoblotted (the pair that is blocked)
[3] = target: nucleoside diphosphate kinase B (human (endogenous in 16HBE14o-)) (UniProt P22392); assay: condition: only in the post-avidin supernatant (cell extract depleted of biotin-labelled cell surface proteins); co-IP; CFTR or NDPK-B immunoprecipitates from the post-avidin supernatant of surface-biotinylated 16HBE14o- cells (lysate depleted of cell surface proteins), ± FSK/IBMX or PKI/FSK/IBMX
[4] = target: untagged NBD1 (351–727) (human) (UniProt P13569); assay: far-Western, overlay or dot blot; Western blot of untagged NBD1 (900, 300 and 100 ng per lane) on PVDF overlaid with purified NDPK-B (50 μg), probed with NDPK-B specific antibodies; both purified
[5] = target: cystic fibrosis transmembrane conductance regulator (human (endogenous in 16HBE14o-)) (UniProt P13569); assay: far-Western, overlay or dot blot; blot of a CFTR immunoprecipitate or of 16HBE14o- membrane proteins, 100 μg, overlaid with 1 μg recombinant NDPK-B without or with cAMP or 8-Br-cAMP (100 μM); probed for NDPK-B; only the binder purified
[6] = target: cystic fibrosis transmembrane conductance regulator (human (endogenous in 16HBE14o-)) (UniProt P13569); assay: co-IP; CFTR or NDPK-B immunoprecipitates from 16HBE14o- membranes; cells untreated, treated with FSK (10 μM)/IBMX (100 μM) for 30 min, or with PKI (100 nM) or H-89 (1 μM) for 5 min before FSK/IBMX
[7] = target: cystic fibrosis transmembrane conductance regulator (human (endogenous in 16HBE14o-)) (UniProt P13569); assay: far-Western, overlay or dot blot; overlay assay with NDPK-A, without or with cAMP; not shown
[8] = target: AMPKα1 (human (endogenous in 16HBE14o-)) (UniProt Q13131); assay: co-IP; AMPKα1, AMPKα2 (legend: also pan AMPKα) immunoprecipitates from membrane and cytosol of 16HBE14o- cells, immunoblot for NDPK-A or NDPK-B; beads washed in RIPA with 1 M NaCl
[9] = target: cystic fibrosis transmembrane conductance regulator (human (endogenous in 16HBE14o-)) (UniProt P13569); assay: co-IP; CFTR or NDPK-B immunoprecipitates on beads from lysates of FSK/IBMX-stimulated 16HBE14o- cells, incubated with buffer or peptide for 30 min at 30°C; beads and supernatant immunoblotted (the pair that is blocked)
[10] = target: cystic fibrosis transmembrane conductance regulator (human (endogenous in 16HBE14o-)) (UniProt P13569); assay: far-Western, overlay or dot blot; blot of SDS-PAGE-separated 16HBE14o- membrane proteins (100 μg) overlaid with 16HBE14o- cytosol proteins (0.5 mg) in TBS with 5% milk, 60 min at room temperature, without or with cAMP, 8-Br-cAMP or dioctanoyl-cAMP (100 μM); probed for NDPK-B
[11] = target: cystic fibrosis transmembrane conductance regulator (human (endogenous in 16HBE14o-)) (UniProt P13569); assay: condition: only in the post-avidin supernatant (cell extract depleted of cell surface/integral membrane proteins by avidin precipitation); co-IP; CFTR or NDPK-B immunoprecipitates from the post-avidin supernatant of surface-biotinylated 16HBE14o- cells (lysate depleted of cell surface proteins), ± FSK/IBMX or PKI/FSK/IBMX
[12] = target: AMPKα2 (human (endogenous in 16HBE14o-)) (UniProt P54646); assay: co-IP; AMPKα1, AMPKα2 (legend: also pan AMPKα) immunoprecipitates from membrane and cytosol of 16HBE14o- cells, immunoblot for NDPK-A or NDPK-B; beads washed in RIPA with 1 M NaCl
[13] = target: human recombinant nucleoside diphosphate kinase B isoform (human) (UniProt P22392); assay: SPR; competition: 1 μg untagged NBD1 injected alone or together with peptide (10, 50 or 100 ng) over immobilised NDPK-B on CM5, HBS-EP, 25°C; response read 20 s into the dissociation phase; both purified

binding [1]: binds | binding [2]: binds | binding [3]: no binding
Substance: cystic fibrosis transmembrane conductance regulator (from UniProt P13569 1-1480)

binding [4]: binds | binding [5]: binds
Substance: human recombinant nucleoside diphosphate kinase B isoform (from UniProt P22392 2-152)

binding [6]: binds | binding [7]: binds | binding [8]: binds
Substance: nucleoside diphosphate kinase A (from UniProt P15531 1-152)

binding [6]: binds | binding [9]: binds | binding [10]: binds | binding [11]: no binding | binding [12]: no binding | binding [8]: no binding
Substance: nucleoside diphosphate kinase B (from UniProt P22392 1-152)

binding [13]: binds
Substance: untagged NBD1 (351–727) (from UniProt P13569 351-727) (domain or fragment)
